Molecular target: T1, full length human NR2 (leptin receptor) with N-terminal FLAG epitope, on the surface of transfected Ba/F3 or … (human, UniProt P48357 26-891)
T1 construct: The Xba I cloning site probably adds Ser-Arg between FLAG and Y26; these two residues are not included here; also called hNR2; haemopoietin receptor
T1 sequence: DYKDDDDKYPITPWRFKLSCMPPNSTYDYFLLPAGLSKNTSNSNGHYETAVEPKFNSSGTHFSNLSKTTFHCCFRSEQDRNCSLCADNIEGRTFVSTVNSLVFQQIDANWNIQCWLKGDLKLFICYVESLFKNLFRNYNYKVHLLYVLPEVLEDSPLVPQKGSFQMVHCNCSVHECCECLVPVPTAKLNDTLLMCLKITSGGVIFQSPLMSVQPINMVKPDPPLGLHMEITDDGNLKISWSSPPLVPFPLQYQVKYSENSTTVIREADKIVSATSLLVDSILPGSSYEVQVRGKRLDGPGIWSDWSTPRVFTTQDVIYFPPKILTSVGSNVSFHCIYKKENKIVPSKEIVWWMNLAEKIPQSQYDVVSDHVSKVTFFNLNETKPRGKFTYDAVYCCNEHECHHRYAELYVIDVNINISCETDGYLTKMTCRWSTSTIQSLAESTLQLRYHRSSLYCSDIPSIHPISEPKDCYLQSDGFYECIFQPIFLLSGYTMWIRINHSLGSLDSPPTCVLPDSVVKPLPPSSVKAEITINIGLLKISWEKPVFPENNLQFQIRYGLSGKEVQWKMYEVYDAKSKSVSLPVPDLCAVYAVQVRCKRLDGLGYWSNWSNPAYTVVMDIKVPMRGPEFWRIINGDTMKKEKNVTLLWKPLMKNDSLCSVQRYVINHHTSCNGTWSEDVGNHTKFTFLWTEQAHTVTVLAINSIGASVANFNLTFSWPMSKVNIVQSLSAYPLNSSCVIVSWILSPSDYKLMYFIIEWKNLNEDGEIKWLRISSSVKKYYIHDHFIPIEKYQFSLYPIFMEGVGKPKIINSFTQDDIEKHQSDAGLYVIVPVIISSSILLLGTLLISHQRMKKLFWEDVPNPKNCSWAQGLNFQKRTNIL
Experiment: Scatchard transformation of saturation binding of 125I human leptin to Ba/F3/hNR2 cells at 23 C
Method: The mixture was incubated for 1-1.5 hr at 23° C. and then layered over 200 μl cold foetal calf serum in small, tapered centrifuge tubes (Elkay, Melbourne) and centrifuged at 12000 g for 10 sec. The cell pellet was removed by cutting the tubes with a scalpel blade and the cell bound (pellet) radioactivity and the unbound radioactivity (the rest of the tube) were separately counted in a Packard γ-counter. […] The data were plotted as saturation curves (specifically bound versus added ¹²⁵I h leptin) and as Scatchard transformations (specific bound/free radioactivity versus specific bound radioactivity to determine the equilibrium dissociation constants [Kds] (20).

- Kd: 120 pM
B1: human leptin, N-terminal FLAG epitope, monomeric form, iodinated with 125I (ligand)
chain: not shown
modifications: iodinated with 125I (modified iodine monochloride method); residues not stated
notes: Made in CHO cells, purified on anti-FLAG M2 and by gel filtration (monomeric form)

Source: patent US20050004015A1 (AMRAD OPERATIONS, published 2005)
